In assay [1] the target is FLAG-tagged wild-type Ephexin4 (murine) (UniProt Q3U5C8). The assay is described as follows: co-IP; RhoG-GEF binding assay: 293T cells co-transfected; lysis and wash buffer additionally with 10 mM EDTA; FLAG-conjugated agarose beads, immunoblotting. In general terms: Immunoblotting shows a protein as a band on a membrane.
In assay [2] the target is FLAG-tagged Ephexin4^E295A (murine) (UniProt Q3U5C8). The assay is described as above.

Amino acid sequences for entries named in this document (tags omitted). A change or cut given only in a name is not applied to a line headed by its entry.
UniProt Q3U5C8: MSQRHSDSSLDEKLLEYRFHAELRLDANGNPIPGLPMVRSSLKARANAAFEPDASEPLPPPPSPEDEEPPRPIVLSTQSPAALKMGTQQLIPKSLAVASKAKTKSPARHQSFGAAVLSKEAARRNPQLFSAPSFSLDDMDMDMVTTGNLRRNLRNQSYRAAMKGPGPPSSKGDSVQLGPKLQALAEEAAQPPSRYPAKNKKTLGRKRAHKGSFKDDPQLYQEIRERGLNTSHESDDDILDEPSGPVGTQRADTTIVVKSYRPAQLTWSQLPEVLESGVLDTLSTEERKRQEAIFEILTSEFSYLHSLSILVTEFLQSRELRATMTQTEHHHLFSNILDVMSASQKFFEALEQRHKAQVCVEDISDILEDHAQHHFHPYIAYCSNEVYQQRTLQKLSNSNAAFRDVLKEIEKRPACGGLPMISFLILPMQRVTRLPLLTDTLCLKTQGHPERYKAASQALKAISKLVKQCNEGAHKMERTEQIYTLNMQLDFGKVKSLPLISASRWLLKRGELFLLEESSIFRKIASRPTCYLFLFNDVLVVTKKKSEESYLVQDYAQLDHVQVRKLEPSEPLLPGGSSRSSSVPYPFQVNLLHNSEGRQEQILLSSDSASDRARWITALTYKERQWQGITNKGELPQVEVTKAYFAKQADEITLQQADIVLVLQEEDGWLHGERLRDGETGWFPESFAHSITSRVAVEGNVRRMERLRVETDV
UniProt P84095: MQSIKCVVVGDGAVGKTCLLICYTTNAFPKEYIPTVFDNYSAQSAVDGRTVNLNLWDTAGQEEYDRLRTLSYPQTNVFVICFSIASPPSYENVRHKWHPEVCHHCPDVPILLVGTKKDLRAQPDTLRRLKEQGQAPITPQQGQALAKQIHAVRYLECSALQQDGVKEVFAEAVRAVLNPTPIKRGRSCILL

These are yes or no findings as the source states them, for the method shown. In cells and extracts the contact can be indirect. Some entries that bind do so weakly or less than the wild type.

For GFP-RhoG (from UniProt P84095 1-191), the binding result in assay [1] and in assay [2] was “binds” throughout.
